The text below walks through data of the antibiotic and cytotoxicity screens of Wong et al. (2023).

SMILES strings stand for the structures. The list shows a part of the results.

One assay relates to HSkMC. In words: cytotoxicity call (relative viability < 0.9). Particulars: 10 µM.
Another assay deals with HepG2. As to the kind of experiment: cytotoxicity call (relative viability < 0.9). Particulars: 10 µM.
The next assay deals with S. aureus RN4220. As to the kind of experiment: growth inhibition call (relative growth <= 0.2). Particulars: 50 µM.

Regarding `CC[C@@]1(C)N[C@H](C(=O)O)CS1`, the cytotoxicity call in the assay with HSkMC and with HepG2 was “inactive” in each case. In the assay on S. aureus RN4220, the growth inhibition call is “inactive”.

Turning to `C[C@@H]1CN([C@H](C)CO)C(=O)c2cccc(NC(=O)C3CCOCC3)c2O[C@H]1CN(C)Cc1ccc(Oc2ccccc2)cc1`, the cytotoxicity call in the assay on HSkMC and with HepG2 was “inactive” each time. Also, the growth inhibition call with S. aureus RN4220 is “inactive”.

Regarding `CCC(=O)N(C)C[C@@H]1Oc2ncc(C#C[C@@H](C)O)cc2C(=O)N([C@@H](C)CO)C[C@H]1C`, the cytotoxicity call in the assay with HSkMC and in the assay on HepG2 was “inactive” throughout. The growth inhibition call with S. aureus RN4220 was “inactive”.

Regarding `C[C@H](CO)N1C[C@H](C)[C@H](CN(C)C(=O)Nc2cccc3ccccc23)Oc2ccc(NC(=O)CCCCCC(=O)Nc3ccccc3N)cc2CC1=O`, the cytotoxicity call with HSkMC and with HepG2 was “inactive” in each case. Further, the growth inhibition call in the assay with S. aureus RN4220 was “inactive”.

On to `CC(C)NC(=O)Nc1cccc2c1O[C@@H](CN(C)S(=O)(=O)c1ccc(Cl)cc1)[C@H](C)CN([C@H](C)CO)C2=O`, for which the cytotoxicity call in the assay on HSkMC and with HepG2 was “inactive” throughout. The growth inhibition call in the assay on S. aureus RN4220 is “inactive”.

Regarding `C[C@@H]1CN([C@@H](C)CO)C(=O)c2cccc(NS(=O)(=O)c3cn(C)cn3)c2O[C@H]1CN(C)S(=O)(=O)c1ccc(Cl)cc1`, the cytotoxicity call in the assay on HSkMC and with HepG2 was “inactive” each time. The growth inhibition call in the assay with S. aureus RN4220 is “inactive”.

With `COc1ccc(S(=O)(=O)N[C@H]2C=C[C@H](CC(=O)N3CCC(Cc4ccccc4)CC3)O[C@H]2CO)cc1`, the cytotoxicity call in the assay with HSkMC and in the assay with HepG2 was “inactive” each time. Further, in the assay on S. aureus RN4220, the growth inhibition call was “inactive”.

Regarding `CO[C@H]1CN(C)C(=O)c2cc(NC(=O)C3CC3)ccc2OC[C@H](C)N(C(=O)C2CCOCC2)C[C@@H]1C`, the cytotoxicity call in the assay on HSkMC and with HepG2 was “inactive” throughout. Besides, the growth inhibition call in the assay with S. aureus RN4220 was “inactive”.

For `COCC#Cc1cnc2c(c1)C(=O)N([C@H](C)CO)C[C@@H](C)[C@H](CN(C)C(=O)Nc1ccc(OC)cc1)O2`, the cytotoxicity call with HSkMC and with HepG2 was “inactive” each time. Moreover, the growth inhibition call in the assay with S. aureus RN4220 is “inactive”.

For `C[C@H](CO)N1C[C@H](C)[C@H](CN(C)Cc2ccc(Cl)c(Cl)c2)OCCCC[C@H](C)Oc2ccc(NC(=O)NC3CCCCC3)cc2C1=O`, the cytotoxicity call in the assay on HSkMC was “inactive”. Besides, the cytotoxicity call in the assay on HepG2 is “active”. Moreover, the growth inhibition call in the assay on S. aureus RN4220 was “inactive”.

Regarding `C[C@@H]1CCCCO[C@@H](CN(C)S(=O)(=O)c2ccc(Cl)cc2)[C@@H](C)CN([C@H](C)CO)C(=O)c2cc(NS(=O)(=O)c3cccs3)ccc2O1`, the cytotoxicity call in the assay with HSkMC and in the assay with HepG2 was “inactive” each time. In addition, in the assay on S. aureus RN4220, the growth inhibition call is “inactive”.

On to `C[C@H](CO)N1C[C@H](C)[C@@H](CN(C)Cc2ccc3c(c2)OCO3)Oc2ccc(NC(=O)Nc3ccc(C(F)(F)F)cc3)cc2CC1=O`, for which the cytotoxicity call with HSkMC and with HepG2 was “active” throughout. Further, in the assay with S. aureus RN4220, the growth inhibition call is “inactive”.

As for `C[C@@H]1CN([C@H](C)CO)C(=O)c2cccc(NS(=O)(=O)c3cn(C)cn3)c2O[C@@H]1CN(C)S(C)(=O)=O`, the cytotoxicity call in the assay with HSkMC and with HepG2 was “inactive” in each case. The growth inhibition call in the assay on S. aureus RN4220 is “inactive”.

For `C[C@H](CO)N1C[C@H](C)[C@H](CN(C)S(C)(=O)=O)OCCCC[C@H](C)Oc2ccc(NC(=O)CCCN(C)C)cc2C1=O`, the cytotoxicity call with HSkMC and in the assay on HepG2 was “inactive” throughout. Further, in the assay with S. aureus RN4220, the growth inhibition call was “inactive”.

Consider `C[C@@H]1CN([C@@H](C)CO)C(=O)c2cc(NC(=O)CCCCCC(=O)Nc3ccccc3N)ccc2O[C@@H]1CN(C)Cc1ccc(C(F)(F)F)cc1`, for which the cytotoxicity call in the assay with HSkMC and with HepG2 was “inactive” in each case. Moreover, the growth inhibition call in the assay with S. aureus RN4220 was “inactive”.

With `C[C@@H]1CN([C@@H](C)CO)S(=O)(=O)c2ccc(C#CCC3CCCC3)cc2O[C@@H]1CN(C)C(=O)c1cnccn1`, the cytotoxicity call in the assay on HSkMC and with HepG2 was “inactive” throughout. Moreover, in the assay on S. aureus RN4220, the growth inhibition call is “inactive”.

Take `O=C1C=CC(=O)N1c1ccc(O)cc1`: the cytotoxicity call with HSkMC and in the assay on HepG2 was “active” in each case. Besides, the growth inhibition call in the assay with S. aureus RN4220 was “inactive”.

Consider `C[C@@H]1CN([C@@H](C)CO)C(=O)c2cc(NS(=O)(=O)c3ccccc3)ccc2O[C@H]1CN(C)S(=O)(=O)c1cn(C)cn1`, for which the cytotoxicity call in the assay on HSkMC and in the assay on HepG2 was “inactive” each time. Also, the growth inhibition call with S. aureus RN4220 is “inactive”.

Consider `O=C(N[C@H]1CCCCNC1=O)c1ccco1`, for which the cytotoxicity call in the assay with HSkMC and with HepG2 was “inactive” throughout. For the same compound, the growth inhibition call with S. aureus RN4220 is “inactive”.

On to `CC(C)CN1C(=O)[C@@]2(Cc3ccccc31)c1ccccc1C(=O)N(Cc1ccccc1Cl)[C@H]2c1ccc(CO)cc1`, for which the cytotoxicity call in the assay on HSkMC and with HepG2 was “inactive” each time. Further, the growth inhibition call in the assay with S. aureus RN4220 is “inactive”.

Take `Cn1c(=O)[nH]c(=O)c2c1ncn2CCN1CCOCC1`: the cytotoxicity call in the assay with HSkMC and in the assay with HepG2 was “inactive” throughout. Besides, the growth inhibition call in the assay with S. aureus RN4220 was “inactive”.

As to `COc1ccc(NC(=O)N(C)C[C@@H]2Oc3c(NC(=O)C4CCOCC4)cccc3C(=O)N([C@H](C)CO)C[C@@H]2C)cc1`, the cytotoxicity call with HSkMC and in the assay with HepG2 was “inactive” throughout. The growth inhibition call in the assay with S. aureus RN4220 was “inactive”.

As for `C[C@@H]1CN([C@H](C)CO)C(=O)Cc2cc(NS(=O)(=O)c3ccccc3)ccc2O[C@H]1CN(C)CC1CC1`, the cytotoxicity call in the assay with HSkMC and in the assay on HepG2 was “inactive” in each case. Besides, the growth inhibition call with S. aureus RN4220 is “inactive”.

As for `CNC[C@H]1OCCCC[C@@H](C)Oc2ccc(NS(=O)(=O)c3cn(C)cn3)cc2C(=O)N([C@H](C)CO)C[C@@H]1C`, the cytotoxicity call with HSkMC and in the assay with HepG2 was “inactive” in each case. The growth inhibition call in the assay with S. aureus RN4220 was “inactive”.

For the compound `C[C@@H]1CCCCO[C@H](CN(C)C(=O)Nc2ccc(C(F)(F)F)cc2)[C@@H](C)CN([C@@H](C)CO)C(=O)c2cc(NS(=O)(=O)c3cn(C)cn3)ccc2O1`, the cytotoxicity call in the assay on HSkMC and in the assay with HepG2 was “inactive” throughout. In addition, the growth inhibition call in the assay on S. aureus RN4220 is “inactive”.

As for `Cc1noc(C)c1S(=O)(=O)Nc1ccc2c(c1)C(=O)N([C@@H](C)CO)C[C@H](C)[C@H](CN(C)CC1CC1)O2`, the cytotoxicity call in the assay on HSkMC (human skeletal muscle cells) and in the assay with HepG2 was “inactive” throughout. The growth inhibition call in the assay with S. aureus RN4220 was “inactive”.

For `C[C@@H]1CCCCO[C@H](CN(C)Cc2ccc3c(c2)OCO3)[C@H](C)CN([C@@H](C)CO)C(=O)c2cc(NC(=O)CCC(F)(F)F)ccc2O1`, the cytotoxicity call in the assay with HSkMC and with HepG2 was “inactive” each time. Also, in the assay on S. aureus RN4220, the growth inhibition call is “inactive”.

`C[C@H](CO)N1C[C@H](C)[C@H](CN(C)Cc2ccc(Oc3ccccc3)cc2)Oc2ccc(NC(=O)Cc3cn(C)c4ccccc34)cc2C1=O`: the cytotoxicity call with HSkMC and in the assay with HepG2 was “active” each time. The growth inhibition call in the assay with S. aureus RN4220 was “inactive”.
